# Measurements as given in PubChem BioAssay AID180 (DTP/NCI, 2004).
# The source holds more than one record for some entries. This list holds those alone. An entry can have further records. The values listed for one entry are repeats across runs, samples, wells, individuals or studies.
# Test system: BDF1 mice, Adenocarcinoma 755 s.c., tumor weight T/C
# Test: NCI In Vivo Anticancer Drug Screen. Data for tumor model Adenocarcinoma 755 (subcutaneous) in B6D2F1 (BDF1) mice
# Conditions: endpoint: mean tumor weight, higher = larger tumour
# Method in brief: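 Values express treated (T) relative to vehicle-dosed control (C) animals, based on survival or tumour size measured after compound treatment of mice bearing a transplanted tumour.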
# [1] = dose: 50.0 mg/kg/injection, schedule: Q01DX011 (ip), vehicle: carboxymethylcellulose (CMC)
# [2] = dose: 100.0 mg/kg/injection, schedule: Q01DX011 (ip), vehicle: other
# [3] = dose: 60.0 mg/kg/injection, schedule: Q01DX011 (ip), vehicle: carboxymethylcellulose (CMC)
structure (smiles),measurement,setting,value
CCCCn1cnc2c([N+](C)(C)C)ncnc21,T/C,"dose: 7.5 mg/kg/injection, schedule: Q01DX011 (ip), vehicle: carboxymethylcellulose (CMC)",34 % of control and 73 % of control
same,T/C,"dose: 30.0 mg/kg/injection, schedule: Q01DX011 (ip), vehicle: carboxymethylcellulose (CMC)",30 % of control and 60 % of control
c1ncc2[nH]cnc2n1,T/C,"dose: 54.13 mg/kg/injection, schedule: Q01DX011 (ip), vehicle: carboxymethylcellulose (CMC)","62 % of control, 108 % of control, 124 % of control"
same,T/C,"dose: 108.25 mg/kg/injection, schedule: Q01DX011 (ip), vehicle: carboxymethylcellulose (CMC)",58 % of control and 109 % of control
O=NN(CCCl)C(=O)NCCCl,T/C,"dose: 0.81 mg/kg/injection, schedule: Q01DX011 (ip), vehicle: saline",86 % of control and 156 % of control
same,T/C,"dose: 1.7 mg/kg/injection, schedule: Q01DX011 (ip), vehicle: carboxymethylcellulose (CMC)",32 % of control and 76 % of control
Cc1ccc(CNc2ncnc3[nH]ncc23)cc1C,T/C,"dose: 200.0 mg/kg/injection, schedule: Q01DX011 (ip), vehicle: methylcellulose (MC)",51 % of control and 79 % of control
CCOc1ccc2nc(S(N)(=O)=O)sc2c1,T/C,"dose: 25.0 mg/kg/injection, schedule: Q01DX011 (ip), vehicle: carboxymethylcellulose (CMC)","43 % of control, 55 % of control, 80 % of control"
same,T/C,[1],42 % of control and 82 % of control
S=c1nc[nH]c2nc[nH]c12,T/C,"dose: 0.05 mg/kg/injection, schedule: Q01DX011 (ip), vehicle: carboxymethylcellulose (CMC)",100 % of control and 150 % of control
CCCCSc1nc(N)nc2c1ncn2CC(C)CC (stereo not drawn),T/C,"dose: 75.0 mg/kg/injection, schedule: Q01DX011 (ip), vehicle: carboxymethylcellulose (CMC)",8 % of control and 49 % of control
O=C(Nc1ccc([N+](=O)[O-])cc1)Nc1ccc([N+](=O)[O-])cc1 (tested in a mixture with another compound),T/C,"dose: 87.5 mg/kg/injection, schedule: Q01DX011 (ip), vehicle: methylcellulose (MC)",82 % of control and 109 % of control
same,T/C,"dose: 350.0 mg/kg/injection, schedule: Q01DX011 (ip), vehicle: methylcellulose (MC)","57 % of control, 73 % of control, 112 % of control"
O=C(OCC1OC(n2cnc3c(=S)nc[nH]c32)C(OC(=O)c2ccc([N+](=O)[O-])cc2)C1OC(=O)c1ccc([N+](=O)[O-])cc1)c1ccc([N+](=O)[O-])cc1 (stereo not drawn),T/C,[2],15 % of control and 46 % of control
c1nc(SCCSc2ncnc3nc[nH]c23)c2[nH]cnc2n1,T/C,"dose: 37.5 mg/kg/injection, schedule: Q01DX011 (ip), vehicle: methylcellulose (MC)",18 % of control and 61 % of control
CS(=O)(=O)OCCCCCOS(C)(=O)=O,T/C,"dose: 12.5 mg/kg/injection, schedule: Q01DX011 (ip), vehicle: methylcellulose (MC)",35 % of control and 64 % of control
O=C(O)Cn1cccc1,T/C,"dose: 1000.0 mg/kg/injection, schedule: Q01DX011 (ip), vehicle: other",67 % of control and 94 % of control
same,T/C,"dose: 2000.0 mg/kg/injection, schedule: Q01DX011 (ip), vehicle: other",52 % of control and 85 % of control
CC(=O)[C@H]1CC[C@H]2[C@@H]3C[C@H](C)C4=CC(=O)CC[C@]4(C)[C@H]3C(=O)C[C@]12C,T/C,"dose: 100.0 mg/kg/injection, schedule: Q01DX011 (sc), vehicle: steriod suspending solution",29 % of control and 55 % of control
Clc1ncnc2nc[nH]c12,T/C,"dose: 18.75 mg/kg/injection, schedule: Q01DX001 (ip), vehicle: carboxymethylcellulose (CMC)",52 % of control and 105 % of control
CC/C(=C(\CC)c1ccc(OC)cc1)c1ccc(O)cc1,T/C,"dose: 15.0 mg/kg/injection, schedule: Q01DX011 (sc), vehicle: other",28 % of control and 65 % of control
same,T/C,"dose: 30.0 mg/kg/injection, schedule: Q01DX011 (sc), vehicle: other",25 % of control and 65 % of control
same,T/C,"dose: 60.0 mg/kg/injection, schedule: Q01DX011 (sc), vehicle: other",26 % of control and 53 % of control
c1nc(SC2CCCC2)c2[nH]cnc2n1,T/C,"dose: 5.0 mg/kg/injection, schedule: Q01DX011 (ip), vehicle: carboxymethylcellulose (CMC)",8 % of control and 59 % of control
CC(=O)O[C@]1(C(C)=O)CC[C@H]2[C@@H]3C[C@H](C)C4=CC(=O)C=C[C@]4(C)[C@@]3(F)[C@@H](O)C[C@@]21C,T/C,"dose: 17.0 mg/kg/injection, schedule: Q01DX011 (sc), vehicle: steriod suspending solution",36 % of control and 105 % of control
same,T/C,"dose: 34.0 mg/kg/injection, schedule: Q01DX011 (sc), vehicle: steriod suspending solution",19 % of control and 70 % of control
same,T/C,"dose: 68.0 mg/kg/injection, schedule: Q01DX011 (sc), vehicle: steriod suspending solution",13 % of control and 58 % of control
NCC(=O)Nc1ccc(O)cc1,T/C,[1],31 % of control and 101 % of control
same,T/C,"dose: 100.0 mg/kg/injection, schedule: Q01DX011 (ip), vehicle: carboxymethylcellulose (CMC)",58 % of control and 110 % of control
O=C1[O][Sb]23[O]C(=O)C([O]2)C(O)C(O)C2[O][Sb]4([O]C(=O)C([O]4)C(O)C(O)C1[O]3)[O]C2=O (stereo not drawn),T/C,"dose: 40.0 mg/kg/injection, schedule: Q01DX011 (ip), vehicle: methylcellulose (MC)",45 % of control and 91 % of control
S=c1nc[nH]c2c1ncn2C1CCCO1 (stereo not drawn),T/C,"dose: 3.0 mg/kg/injection, schedule: Q01DX011 (ip), vehicle: carboxymethylcellulose (CMC)",9 % of control and 44 % of control
NC(CCSCc1ccc(N(CCCl)CCCl)cc1)C(=O)O (stereo not drawn),T/C,"dose: 18.0 mg/kg/injection, schedule: Q01DX011 (ip), vehicle: saline",19 % of control and 45 % of control
CCCCCCn1cnc2c(=S)nc[nH]c21,T/C,"dose: 125.0 mg/kg/injection, schedule: Q01DX011 (ip), vehicle: carboxymethylcellulose (CMC)",60 % of control and 94 % of control
same,T/C,"dose: 250.0 mg/kg/injection, schedule: Q01DX011 (ip), vehicle: carboxymethylcellulose (CMC)",39 % of control and 69 % of control
CCCn1cnc2c(=S)nc[nH]c21,T/C,"dose: 0.37 mg/kg/injection, schedule: Q01DX011 (ip), vehicle: carboxymethylcellulose (CMC)",66 % of control and 103 % of control
same,T/C,"dose: 0.75 mg/kg/injection, schedule: Q01DX011 (ip), vehicle: carboxymethylcellulose (CMC)",68 % of control and 150 % of control
same,T/C,"dose: 1.5 mg/kg/injection, schedule: Q01DX011 (ip), vehicle: carboxymethylcellulose (CMC)",32 % of control and 60 % of control
same,T/C,"dose: 2.0 mg/kg/injection, schedule: Q01DX011 (ip), vehicle: carboxymethylcellulose (CMC)",9 % of control and 35 % of control
CN1CC[C@]23c4c5ccc(O)c4O[C@H]2C(=O)CC[C@@]3(O)[C@H]1C5,T/C,"dose: 9.0 mg/kg/injection, schedule: Q01DX011 (ip), vehicle: methylcellulose (MC)","52 % of control, 61 % of control, 82 % of control"
same,T/C,"dose: 18.0 mg/kg/injection, schedule: Q01DX011 (ip), vehicle: methylcellulose (MC)","26 % of control, 57 % of control, 77 % of control"
same,T/C,"dose: 36.0 mg/kg/injection, schedule: Q01DX011 (ip), vehicle: methylcellulose (MC)",19 % of control and 76 % of control
CC(=O)OCC1OC(n2cnc3c(N)ncnc32)CC1OC(C)=O (stereo not drawn),T/C,[3],80 % of control and 112 % of control
CCC(=O)O[C@H]1CC[C@H]2[C@@H]3CC[C@H]4CC(=O)[C@H](C)C[C@]4(C)[C@H]3CC[C@]12C,T/C,"dose: 176.5 mg/kg/injection, schedule: Q01DX011 (sc), vehicle: steriod suspending solution",93 % of control and 185 % of control
same,T/C,"dose: 250.0 mg/kg/injection, schedule: Q01DX011 (sc), vehicle: steriod suspending solution",91 % of control and 119 % of control
CO[C@@]12[C@H](COC(N)=O)C3=C(C(=O)C(C)=C(N)C3=O)N1C[C@@H]1N[C@@H]12,T/C,"dose: 0.4 mg/kg/injection, schedule: Q01DX011 (ip), vehicle: carboxymethylcellulose (CMC)","70 % of control, 74 % of control, 102 % of control"
same,T/C,"dose: 0.8 mg/kg/injection, schedule: Q01DX011 (ip), vehicle: carboxymethylcellulose (CMC)","18 % of control, 47 % of control, 67 % of control"
same,T/C,"dose: 225.0 micrograms/kg/injection, schedule: Q01DX011 (ip), vehicle: carboxymethylcellulose (CMC)",62 % of control and 88 % of control
C[C@@H]1CN(C(=O)CCOS(C)(=O)=O)[C@@H](C)CN1C(=O)CCOS(C)(=O)=O,T/C,"dose: 18.8 mg/kg/injection, schedule: Q01DX011 (ip), vehicle: carboxymethylcellulose (CMC)",49 % of control and 76 % of control
O=c1cc2[nH]c(O)cn2c(=O)[nH]1,T/C,[3],34 % of control and 102 % of control
CCC1OCCN1C(C)C (stereo not drawn),T/C,[2],13 % of control and 102 % of control
COc1ccc(C[C@H](N)C(=O)NC2C(CO)OC(n3cnc4c(N(C)C)ncnc43)C2O)cc1 (stereo partly drawn),T/C,"dose: 39.75 mg/kg/injection, schedule: Q01DX011 (ip), vehicle: carboxymethylcellulose (CMC)","16 % of control, 30 % of control, 59 % of control"
same,T/C,"dose: 53.0 mg/kg/injection, schedule: Q01DX011 (ip), vehicle: carboxymethylcellulose (CMC)","3 % of control, 16 % of control, 44 % of control"
CCN(CC)c1ccc2cc3ccc(=[N+](CC)CC)cc-3oc2c1,T/C,"dose: 10.0 mg/kg/injection, schedule: Q01DX011 (ip), vehicle: methylcellulose (MC)",71 % of control and 120 % of control
